Experimental data reported in patent US11136291B2, “Antifungal compounds and uses thereof” (Dana-Farber Cancer Institute, Inc., priority 2016, dated 2021).
Read-outs that look alike come from different tables or passages of the source. For some of these results: Part of at least one peptide drawing is inferred or uncertain, most often the ends. For some of these results: The name of at least one read-out is uncertain. Peptide text beside a SMILES is read from it. * marks the point of attachment. FITC = O=C1OC2(c3ccc(O)cc3Oc3cc(O)ccc32)c2ccc(NC(=S)*)cc21

What was measured:
[1] = tested on: CgCDR1 transcription (CgPdr1 target); test: Transcription assay, quantitative real-time PCR of CgPdr1 target genes; type: cell-based, Candida glabrata
CgGal11A KIX domain = target: T1, CgGal11A KIX domain (Candida glabrata, UniProt Q6FRS9); test: Fluorescence polarization (FP) binding/competition assay, CgPdr1 AD30 with CgGal11A KIX
T1 construct: other: compared with iKIX1; other: GST-CgGal11A KIX 3 μM, 30 nM FITC-CgPdr1 AD30; Kd of CgPdr1 AD30 for CgGal11A KIX domain; other: FP titration, 30 nM FITC-CgPdr1 AD30; Kd of the CgPdr1 AD for the CgGal11A KIX domain; apparent Ki; fused on or other part: N-terminal His6-GST tag
T1 sequence (Q6FRS9 whole entry, looked up, the tested form may be a part): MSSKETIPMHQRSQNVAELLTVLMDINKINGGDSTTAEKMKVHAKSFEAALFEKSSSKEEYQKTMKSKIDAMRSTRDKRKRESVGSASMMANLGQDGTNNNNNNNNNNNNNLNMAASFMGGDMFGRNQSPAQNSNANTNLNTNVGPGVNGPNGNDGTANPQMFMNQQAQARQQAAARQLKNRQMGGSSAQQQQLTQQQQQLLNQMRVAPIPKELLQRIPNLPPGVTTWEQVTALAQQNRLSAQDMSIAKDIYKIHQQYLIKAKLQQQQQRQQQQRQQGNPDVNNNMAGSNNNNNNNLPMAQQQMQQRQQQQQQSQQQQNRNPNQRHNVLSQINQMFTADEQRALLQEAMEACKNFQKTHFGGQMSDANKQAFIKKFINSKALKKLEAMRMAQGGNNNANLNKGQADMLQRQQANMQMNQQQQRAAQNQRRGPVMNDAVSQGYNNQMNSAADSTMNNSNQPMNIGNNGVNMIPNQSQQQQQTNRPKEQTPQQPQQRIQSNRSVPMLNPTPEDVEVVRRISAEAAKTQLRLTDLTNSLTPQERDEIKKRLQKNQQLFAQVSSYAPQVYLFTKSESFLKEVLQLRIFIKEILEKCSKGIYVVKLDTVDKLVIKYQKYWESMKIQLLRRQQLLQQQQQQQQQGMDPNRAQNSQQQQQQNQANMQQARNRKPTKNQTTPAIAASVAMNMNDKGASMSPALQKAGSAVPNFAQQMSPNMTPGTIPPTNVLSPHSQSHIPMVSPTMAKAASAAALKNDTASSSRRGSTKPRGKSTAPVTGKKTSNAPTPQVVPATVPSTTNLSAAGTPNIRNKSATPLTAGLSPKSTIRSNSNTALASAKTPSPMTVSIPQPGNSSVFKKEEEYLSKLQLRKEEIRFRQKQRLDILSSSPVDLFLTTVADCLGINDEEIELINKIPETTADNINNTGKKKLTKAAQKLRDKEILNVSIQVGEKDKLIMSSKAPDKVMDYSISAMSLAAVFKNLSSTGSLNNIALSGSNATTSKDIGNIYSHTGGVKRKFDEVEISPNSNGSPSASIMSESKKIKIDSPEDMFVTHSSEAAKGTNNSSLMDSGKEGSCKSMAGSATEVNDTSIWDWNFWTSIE
Description: A fluorescein-tagged 30 amino acid C-terminal activation domain of CgPdr1 (FITC-[…] (SEQ ID NO: 1)) CgPdr1 AD30 was purchased as a synthetic peptide from Pepide2.0. The CgGal11A KIX domain was expressed as a His6-GST fusion protein and purified by affinity chromatography with Ni-NTA resin (Qiagen) and size exclusion chromatography (Sephadex 75, Pharmacia). […] For small molecule screening, fluorescein-CgPdr1 AD30 was held at a concentration of 30 nM and the GST-tagged CgGal11A KIX was at a concentration of 1 μM (above the Kd). The screen was carried out in duplicate and the volume in each well was 25 μL.
To measure the dissociation constant (Kd) of CgPdr1 AD30, FITC labeled CgPdr1 AD30 was held at a concentration of 30 nM and the GST-tagged CgGal11A KIX was prepared with concentrations ranging from 0 to 300 μM. The IC50 for iKIX-1 binding was measured with GST-tagged CgGal11A KIX held at a constant 3 μM concentration, iKIX-1 was titrated from 0 to 1000 μM and 30 nM FITC-labeled CgPdr1 AD30 was added subsequently with an HP D300 digital dispenser (Tecan Group. Maennerdorf, Switzerland). All experiments were carried out in duplicate and the s.d. is reported at each point on the plot.
The FP titration curve of the CgPdr1 AD30 was fitted to GraphPad Prisms (La Jolla, Calif., USA) One site-total binding equation (equation 1). […]

SMILES	CgCDR1 qRT-PCR (% DMSO + keto) ([1]; 30 μm compound)	CgCDR1 qRT-PCR (% DMSO + keto) ([1]; 10 μm compound)	Kd (CgGal11A KIX domain; read-out: Kd of CgPdr1 AD30 for CgGal11A KIX domain, FP titration, 30 nM FITC-CgPdr1 AD30)	Kd (CgGal11A KIX domain; read-out: Kd of the CgPdr1 AD for the CgGal11A KIX domain, in vitro binding studies)
N#CC(C(=O)NNC(=S)Nc1ccc(Cl)c(Cl)c1)c1ccccc1 (stereo not shown)	30 μm − 1% DMSO + keto	–	–	–
COc1cc(NC(=S)NNC(=O)CC#N)cc(Cl)c1Cl	6 % DMSO + keto	15 % DMSO + keto	–	–
CC(C)C[C@H](NC(=O)[C@H](Cc1ccc(O)cc1)NC(=O)[C@@H](NC(=O)[C@H](CC(=O)O)NC(=O)[C@H](CO)NC(=O)[C@H](Cc1ccccc1)NC(=O)[C@H](CC(C)C)NC(=O)[C@H](CC(=O)O)NC(=O)CNC(=O)[C@H](Cc1c[nH]c2ccccc12)NC(=O)[C@H](CC(C)C)NC(=O)[C@H](CO)NC(=O)[C@H](CC(N)=O)NC(=O)[C@H](Cc1ccc(O)cc1)NC(=O)[C@H](CC(C)C)NC(=O)[C@H](CCC(=O)O)NC(=O)[C@H](CC(N)=O)NC(=O)[C@H](CC(C)C)NC(=O)[C@H](CC(=O)O)NC(=O)CNC(=O)[C@H](CCCCN)NC(=O)[C@H](CC(N)=O)NC(=O)[C@@H](NC(=O)[C@H](Cc1ccccc1)NC(=O)[C@H](CCC(=O)O)NC(=O)[C@H](CC(=O)O)NC(=O)[C@H](CC(C)C)NC(=O)[C@@H](NC(=O)CNC(=O)[C@H](CC(C)C)NC(=S)Nc1ccc2c(c1)C(=O)OC21c2ccc(O)cc2Oc2cc(O)ccc21)[C@@H](C)O)C(C)C)C(C)C)C(=O)O [CgPdr1 AD30] ({FITC}-LGTLDEFVNKGDLNELYNSLWGDLFSDVYL-OH)	–	–	320 nM	320 nM
N#CC1(C(=O)NNC(=S)Nc2ccc(Cl)c(Cl)c2)CC1 [drawing 45]	5 % DMSO + keto	12 % DMSO + keto	–	–
N#CCC(=O)NNC(=S)Nc1ccc(Cl)c(F)c1 [drawing 46]	42 % DMSO + keto	74 % DMSO + keto	–	–
N#CCC(=O)NNC(=S)Nc1ccc(C(F)(F)F)c(Cl)c1 [drawing 47]	3 % DMSO + keto	10 % DMSO + keto	–	–
N#CCC(=O)NNC(=S)Nc1cc(Cl)cc(Cl)c1 [drawing 48]	7 % DMSO + keto	17 % DMSO + keto	–	–
N#CCC(=O)NNC(=S)Nc1cc(Cl)cc(C(F)(F)F)c1 [drawing 49]	30 μm − 3% DMSO + keto	–	–	–
N#CC1(C(=O)NNC(=S)Nc2ccc(Cl)c(Cl)c2)CCCCC1 [drawing 51]	2 % DMSO + keto	10 % DMSO + keto	–	–
